Measured values reported in PubChem BioAssay AID504444 (National Center for Advancing Translational Sciences (NCATS), 2011).
Screen size: about 360,000 compounds; about 7,500 (2.1%) were called active. About 20% were inconclusive and are not listed. The call rests on the fitted dose curve; in most records, active means well fitted inhibition curve with a large enough effect; inconclusive means small, poorly fitted or top-dose-only effect, or effect the other way; inactive means flat fitted curve, though single readings scatter. This is a selection; strong and weak results do not stand in their true shares. Some compounds were tested as several samples or in several runs, with calls that do not always agree.

Experiment: Nrf2 qHTS screen for inhibitors; further: nearly all actives have a fitted effect of over 60% in size
Conditions: A549 ARE-Fluc reporter, luciferase luminescence, 18-24 h; series mostly up to 46 µM; activity change, negative = inhibition: at the top concentration
From the text: NIH Molecular Libraries Probe Production Network [MLPCN]
NIH Chemical Genomics Center [NCGC]
Assay Provider: Shyam Biswal, Johns Hopkins University
Nrf2 is a transcription factor that maintains cellular redox homoestasis and protects cells from xenobiotics. Nrf2 binds to the antioxidant response element (ARE) to induce gene expression of a broad spectrum of genes that encode for antioxidants. […] Finding a small molecule that act as an inhibitor of Nrf2 function would represent a novel therapeutic target that could lead to improvement in survival of patients undergoing chemo- and/or radio- therapy.
This is the Nrf2 activity measured in the luminescent read.
1. Shibata, T., et al., Genetic Alteration of Keap1 Confers Constitutive Nrf2 Activation and Resistance to Chemotherapy in Gallbladder Cancer. Gastroenterology, 2008.
2. Sjoblom, T., et al., The consensus coding sequences of human breast and colorectal cancers. Science, 2006. 314(5797): p. 268-74.
NCGC Assay Protocol Summary:
A concentration-response assay was performed with A549 ARE_Fluc cells which are suspended in 5% FBS OPTI-MEM. Five uL were dispensed into 1536-well white TC-treated plate using the Kalypsys dispenser to achieve a density of 5000 cells/well in all columns except column 1. The plate is incubated at 37deg C at 5% CO2 for 2 hours before 23 nL of compounds are added with the Kalypsys pin tool equipped with a 1,536-pin array containing 10-nL slotted pins (FP1S10, 0.457-mm diameter, 50.8 mm long; V&P Scientific). The control compounds Budesonide and Staurosporine are both added at a concentration of 2mM and Budesonide is also added as a 1:10 titration, starting at 200uM, to achieve dose-response. After an 18-24 hour incubation at 37deg C at 5% CO2, 5ul of medium is added to column 1. Afterwards 1ul of 5x of CellTiter-Fluor (Promega) is added to every well. The plate is then incubated at 37deg C at 5% CO2 for 30 minutes before they are read on the ViewLux (Perkin Elmer) for a fluorescent read Ex=405(10)/Em=525(10) for a 3 second exposure, 2x binning, and high gain. Then 3 uL of 3x BugLite is dispensed into all wells and the plate is incubated at ambient room temperature for 15 minutes. Afterwards another ViewLux read is performed using the clear filter to get a luminescent read with the settings of 40 second exposure, 2x binning, and high gain. Cytotoxicity is assessed through the first fluorescent read and then biochemical activity against Nrf2 is measured in the luminescent read.
On the % scale 0 is the no-effect control and ±100 the full control effect; potency means the concentration at half of the fitted maximal effect.

Structure (SMILES) | activity change, negative = inhibition | Potency
CS(=O)(=O)N1CCc2cc(C(=O)N3CCN(c4ccccc4)CC3)ccc21 | inactive: 12.7% | 
COc1ccc(CNCCC(c2ccccc2)c2ccc3c(c2)OCO3)cc1 (configuration not stated) | inactive: -3.59% | 
COC(=O)C(C)n1nnc2sc(-c3ccccc3)cc2c1=O (configuration not stated) | inactive: 1.29% | 
COc1cc(/C=C2\SC(=S)N(CCC(=O)Nc3ccccc3)C2=O)cc(OC)c1OC | inactive: -12.2% | 
O=C(Nc1cccc(S(=O)(=O)Nc2ccccc2Cl)c1)c1ccc(Cl)nc1 |  | active: 5.17 µM
CC(C)(C)OC(=O)N[C@H](/C=C/c1ccccc1)C(=O)OC(C)(C)C | inactive: 2.32% | 
C=CCC[C@H](Cc1ccc(F)cc1)C(=O)OC[C@H](Cc1c[nH]c2ccccc12)NC(=O)[C@H](CC=C)CC(=O)NCCO | inactive: -21.1% | 
O=C(O)C(CCCCNS(=O)(=O)c1ccc(F)cc1)NS(=O)(=O)c1ccc(F)cc1 (configuration not stated) | inactive: -4.2% | 
Cc1nc2sccn2c(=O)c1S(=O)(=O)NCc1ccccc1 | inactive: 14.2% | 
Cc1ccc(C)c(N2CCN(C(=O)c3ccc4c(c3)c(C)c(C)n4C)CC2)c1 | inactive: -26.4% | 
C/C(N)=C(/C#N)C(=O)CSc1nc(C2CCCCC2)n(-c2ccccc2)n1 | inactive: -17.8% | 
CCO[C@H]1OC(C(=O)N2CCOCC2)=C[C@@H](c2coc3ccccc3c2=O)[C@@H]1CCCO | inactive: -8.54% | 
COc1cc(NC(=O)c2cccc(F)c2)ccc1NC(=O)c1cc2ccccc2o1 | inactive: -3.35% | 
CCn1c(CN2CCOCC2)nc2cc(NC(=O)c3ccc([N+](=O)[O-])cc3)ccc21 |  | active: 9.2 µM
CCOC(=O)C1CCN(C(=O)Cn2nc(C)n3c(cc4cc(C)ccc43)c2=O)CC1 | inactive: 5.72% | 
CCc1ccccc1NC(=O)Cn1nnc(C(=O)NCc2cccs2)c1N | inactive: -4.73% | 
CCN1CCN(c2cc(C)c3cc(NC(=O)c4ccc(OC)c(OC)c4)ccc3n2)CC1 | inactive: -15.6% [at 9.27 µM] | active: 16.4 µM
C=CC[C@@H](Cc1ccc(F)cc1)C(=O)OC[C@@H]1CCCN1C(=O)[C@@H](CC=C)CC(=O)N[C@@H](CO)Cc1ccccc1 | inactive: 4.56% | 
COC(C[C@@H]1O[C@@H]1[C@H](O)[C@@H](C)OCc1ccccc1)OC | inactive: 9.4% | 
CC(CC(=O)Nc1ccc(Cl)c(S(=O)(=O)N2CCOCC2)c1)c1ccccc1 (configuration not stated) |  | active: 7.31 µM
Cc1ccc(-c2cc([C@H]3[C@@H]4C=CCC[C@@]4(C)C(=O)N3Cc3ccccc3)ccc2F)cc1 | inactive: -16.2% | 
COc1ccccc1NS(=O)(=O)c1ccc(C(=O)N2CCCCCC2)cc1 |  | active: 10.3 µM
Cc1csc2c(N3CCN(C(=O)Nc4ccccc4)CC3)ncnc12 |  | active: 8.2 µM
CC(C)(C)c1ccc2c(c1)OC(C(=O)N/N=C\c1ccccn1)CO2 (configuration not stated) |  | active: 16.4 µM
CC(/C=N/NC(=O)CSc1ccccn1)=C\c1ccc(C(C)C)cc1 | inactive: 24.4% | 
CC[n+]1c(/C=C(\C)SC)sc2ccccc21 |  | active: 20.6 µM

Structure (SMILES) | activity change, negative = inhibition | Potency
CN(c1ccccc1)S(=O)(=O)c1nnc(NC(=O)C2CCCCC2)s1 | inactive: -3.09% | 
Cn1nc(C(=O)NCc2cccc(Cl)c2)c2c1-c1ccccc1S(=O)(=O)C2 | inactive: 0.784% | 
Cc1ccccc1N(C)S(=O)(=O)c1nnc(NC(=O)c2ccccc2F)s1 | inactive: 10.8% | 
COc1ccc(NC(=O)c2ccc(COc3ccccc3Br)o2)cc1OC |  | active: 23.1 µM
COc1ccc(OC)c(S(=O)(=O)Nc2ccc3[nH]c(=O)[nH]c3c2)c1 | inactive: 9.82% | 
Cc1ccc2c(c1)N(CC(=O)NCCCN1CCCCC1)C(=O)c1cccnc1O2 | inactive: 28.4% | 
COc1ccc(/C=C2/SC(=S)N(CCCC(=O)Nc3ccc(O)cc3)C2=O)cc1 | inactive: 16.9% | 
CCNc1nc(NC(C)CC)nc(Oc2ccc(OCC)nn2)n1 (configuration not stated) | inactive: -5.9% | 
CCC(C)NC(=O)CCC(=O)NNc1nc2ccccc2c2nc(C)nn12 (configuration not stated) | inactive: -0.323% | 
CC(C)(C)[C@H]1COC(=O)[C@H](NC(=O)OCC2c3ccccc3-c3ccccc32)C/C=C\C[C@@H](CC(=O)N[C@H](CO)Cc2ccccc2)C(=O)N1 | inactive: 1.64% | 
Cc1ccccc1-c1nc(CS(=O)(=O)CC(=O)NCCc2ccccc2)c(C)o1 | inactive: -17% | 
CCC/C=C1/CCCOC(C(=O)NCCNCCO)(C(F)(F)F)C1 (configuration not stated) | inactive: 11.1% | 
CN(/C=C/C(=C/C=[N+](C)c1ccccc1)OCCCS(=O)(=O)[O-])c1ccccc1 | inactive: 7.22% | 
COC(=O)CNC(=O)C1CCN(S(=O)(=O)c2cccc3nsnc23)CC1 | inactive: -20.7% | 
C[C@]12c3[nH]c4cc(-c5ccco5)ccc4c3CCN1C(=O)[C@@H](CC(=O)NCC13CC4CC(CC(C4)C1)C3)C[C@@H]2C(=O)N1CCOCC1 |  | active: 23.1 µM
O=S(=O)(c1ccc2nc(N3CCN(c4ccccc4)CC3)ccc2c1)N1CCCCC1 | inactive: 22.1% | 
Cc1ccc(NS(=O)(=O)c2cccc(C(=O)Nc3cccnc3)c2)c(C)c1 |  | active: 8.2 µM
CN(CC(=O)Nc1ccc(F)c(Cl)c1)S(=O)(=O)c1cccc2nsnc12 |  | active: 25.9 µM
O=C(Cn1cnc(S(=O)(=O)N2CCCC2)c1)Nc1ccc(OC(F)(F)F)cc1 | inactive: 15.2% | 
CCc1nonc1NC(=O)c1oc2cc(C)c(Cl)cc2c1C | inactive: 5.63% | 
N#C/C(=C/c1ccc(N2CCOCC2)o1)C(=O)N1CCOCC1 | inactive: 19.3% | 
Cc1ccc(NC(=O)CCc2c(C)nn(-c3ccc(N4CCOCC4)nn3)c2C)cc1F | inactive: -4.18% | 
CCOC(=O)c1cccc(NC(=O)CCNS(=O)(=O)c2cccc3nonc23)c1 | inactive: 2.07% [at 9.27 µM] | 
O=C1OC[C@@H]2CCCN2C(=O)[C@H](CC(=O)N(CCO)Cc2ccccc2)C/C=C\CC[C@H]1Cc1ccc(F)cc1 | inactive: -12.5% | 
C1CCC(C(CC2CCCCN2)C2CCCCC2)CC1 (configuration not stated) | inactive: 1.43% | 
